Reference: PMC5862564
Results are given in words; binding and its absence hold for the method and conditions named. Binding seen in cells or lysates may run through a third protein. Some results given as binding are weak or reduced against the parent protein; the word gives no strength.

Target: SKAP2N2 (SRC Kinase Adaptor Phosphoprotein 2 with Gaussia princeps luciferase fragment 2 at its N-terminal end) (human) (UniProt O75563)
Assay: split reporter; Gaussia princeps luciferase complementation assay (GPCA) in HEK293T cells; SKAP2N2 or its mutants with N1-fused partners; cells non-stimulated or activated with 5 µM A23187 for 2 h 15 min; normalized luminescence ratio (NLR) above the threshold of the negative controls

B1: FAM102A P149L mutant (protein, UniProt Q5T9C2-3 1-242)
chain: MFLLSGDPCFKTPPSTAKSISIPGQDSSLQLTCKGGGTSSGGSSTNSLTGSRPPKARPTILSSGLPEEPDQNLSSPEEVFHSGHSRNSSYASQQSKISGYSTEHSRSSSLSDLTHRRNTSTSSSASGGLGMTVEGPEGSEREHRPPEKLPRPPRPLHLSDRSFRRKKDSVESHPTWVDDTRIDADAIVEKIVQSQDFTDGSNTEDSNLRLFVSRDGSATLSGIQLATRVSSGVYEPVVIESH
  binding: binds

B2: FYB P370A mutant (protein, UniProt O15117-3 1-839)
chain: MDGKADVKSLMAKYNTGGNPTEDVSVNSRPFRVTGPNSSSGIQARKNLFNNQGNASPPAGPSNVPKFGSPKPPVAVKPSSEEKPDKEPKPPFLKPTGAGQRFGTPASLTTRDPEAKVGFLKPVGPKPINLPKEDSKPTFPWPPGNKPSLHSVNQDHDLKPLGPKSGPTPPTSENEQKQAFPKLTGVKGKFMSASQDLEPKPLFPKPAFGQKPPLSTENSHEDESPMKNVSSSKGSPAPLGVRSKSGPLKPAREDSENKDHAGEISSLPFPGVVLKPAASRGGPGLSKNGEEKKEDRKIDAAKNTFQSKINQEELASGTPPARFPKAPSKLTVGGPWGQSQEKEKGDKNSATPKQKPLPPLFTLGPPPPKANRPPNVDLTKFHKTSSGNSTSKGQTSYSTTSLPPPPPSHPASQPPLPASHPSQPPVPSLPPRNIKPPFDLKSPVNEDNQDGVTHSDGAGNLDEEQDSEGETYEDIEASKEREKKREKEEKKRLELEKKEQKEKEKKEQEIKKKFKLTGPIQVIHLAKACCDVKGGKNELSFKQGEQIEIIRITDNPEGKWLGRTARGSYGYIKTTAVEIDYDSLKLKKDSLGAPSRPIEDDQEVYDDVAEQDDISSHSQSGSGGIFPPPPDDDIYDGIEEEDADDGSTLQVQEKSNTWSWGILKMLKGKDDRKKSIREKPKVSDSDNNEGSSFPAPPKQLDMGDEVYDDVDTSDFPVSSAEMSQGTNVGKAKTEEKDLKKLKKQEKEEKDFRKKFKYDGEIRVLYSTKVTTSITSKKWGTRDLQVKPGESLEVIQTTDDTKVLCRNEEGKYGYVLRSYLADNDGEIYDDIADGCIYDND
  binding: binds
